Reference: PubChem BioAssay AID485344 (National Center for Advancing Translational Sciences (NCATS), 2010)
Hit rate of the full screen: of about 340,000 compounds, about 6,900 (2%) were called active. Rule as the data show it: active = inhibition above about 30%; inactive = below that, where a call was filed. The entries are a selection whose mix differs from that of the whole data set. Entries without a call were filed so in the source.

Target: D(2) dopamine receptor (Homo sapiens) (UniProt P14416)
Assay: HTS Assay for Allosteric Antagonists of the Human D2 Dopamine Receptor: Primary Screen for Antagonists; also: 0% is about no effect
Details: HEK293 TREx D2 cells, calcium flux, dopamine EC80; at 10 µM; stronger effect = higher value
Outline: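 Read-out: kinetic calcium fluorescence (1 cycle/s) in inducible HEK293 T-REx D2 cells after an EC80 dopamine addition that followed 180 s compound preincubation. Loss of the dopamine response indicates antagonism.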

Chain of UniProt P14416 (P14416 whole entry, looked up): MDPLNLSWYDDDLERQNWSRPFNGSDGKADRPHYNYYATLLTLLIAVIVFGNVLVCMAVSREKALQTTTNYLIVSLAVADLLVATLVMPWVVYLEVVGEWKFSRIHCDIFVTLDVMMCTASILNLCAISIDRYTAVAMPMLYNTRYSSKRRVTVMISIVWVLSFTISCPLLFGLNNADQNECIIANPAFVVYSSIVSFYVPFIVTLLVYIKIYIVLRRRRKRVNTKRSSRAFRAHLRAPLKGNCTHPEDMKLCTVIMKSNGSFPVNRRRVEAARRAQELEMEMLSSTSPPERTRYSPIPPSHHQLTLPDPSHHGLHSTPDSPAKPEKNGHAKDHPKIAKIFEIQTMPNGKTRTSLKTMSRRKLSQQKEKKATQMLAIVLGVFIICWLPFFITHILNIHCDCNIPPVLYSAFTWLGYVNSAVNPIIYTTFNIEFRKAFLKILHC

Q: Which inhibition does the source give for `COc1ccc(-n2nc(C(=O)NCCc3ccc(Cl)cc3)c3c4ccccc4n(C)c3c2=O)cc1Cl` here?
A: Its inhibition is -1.16%.

Q: With `O=C(Cn1c(=O)n(Cc2ccco2)c(=O)c2ccc(C(=O)NC3CCCC3)cc21)Nc1ccc(F)cc1` as the compound, how does the inhibition read?
A: Its inhibition is -2.43%.

Q: For `Cc1ccc(-c2ccc(CCC(=O)O)n2C(C)C)cc1`, which inhibition is on record?
A: Its inhibition is active: 32.6%.

Q: How did the inhibition turn out when `COc1ccccc1N1CCN(Cc2nc(N)nc(Nc3ccccc3)n2)CC1` was run?
A: The inhibition was active: 34%.

Q: How did the inhibition turn out when `Cc1cc(-c2ccc(C)c(S(=O)(=O)N3CCCC(C)C3)c2)on1` (configuration not stated) was run?
A: The inhibition was 1.2%.

Q: How did the inhibition turn out when `O=C(Cn1nc2c(cc1=O)CCCC2)Nc1ccc(F)cc1F` was run?
A: The inhibition was -17.4%.

Q: How did the inhibition turn out when `COc1ccc(CCNC(=O)c2c(O)nc3cc(C)ccn3c2=O)cc1OC` was run?
A: The inhibition was -16.2%.

Q: With `CCc1nn(CC(=O)NCc2ccco2)c(=O)c2cc3cc(F)ccc3n12` as the compound, how does the inhibition read?
A: Its inhibition is 0.177%.

Q: How did the inhibition turn out when `Cc1ccc(NC(=O)c2nc(S(C)(=O)=O)ncc2N(Cc2cccc(F)c2)Cc2ccco2)cc1C` was run?
A: Its inhibition is 8.32%.

Q: How did the inhibition turn out when `Cc1ccc(NC(=O)CCCc2nnc3n(C)c(=O)c4sccc4n23)cc1C` was run?
A: Its inhibition is 3.95%.

Q: With `CCOc1ccccc1N1CCN(CC(O)COc2ccc3c(C)cc(=O)oc3c2)CC1` (configuration not stated) as the compound, how does the inhibition read?
A: Its inhibition is active: 64.8%.

Q: Which inhibition does the source give for `Cc1cccc(NC(=O)c2c(C)nc3ccccn23)c1` here?
A: Its inhibition is active: 40.1%.

Q: `COc1ccc(OC)c(NC(=O)Cn2nc3c(cc2=O)CCCC3)c1` was tested. Which inhibition did it give?
A: Its inhibition is -5.98%.

Q: For `COc1ccc(CCNS(=O)(=O)c2ccc3c(c2)c(=O)n(C)c(=O)n3C)cc1OC`, which inhibition is on record?
A: The inhibition was -22.7%.

Q: `CCc1ccc(NC(=O)CC2C(=O)N(c3cccc(C)c3)C(=O)N2Cc2cccc(OC)c2)cc1` (configuration not stated) was tested. Which inhibition did it give?
A: Its inhibition is 16%.

Q: Which inhibition does the source give for `Cc1[nH]c(=O)[nH]c(=O)c1S(=O)(=O)Nc1cccc(Cl)c1C` here?
A: Its inhibition is 13.6%.

Q: Which inhibition does the source give for `CCOc1ccc(CNC(=O)Cn2nc(C)c3nn(-c4ccc(Cl)cc4)c(C)c3c2=O)cc1` here?
A: The inhibition was -6.36%.

Q: `CCS(=O)(=O)c1ccc2oc(SCC(=O)NCCC3=CCCCC3)nc2c1` was tested. Which inhibition did it give?
A: Its inhibition is active: 67.5%.

Q: How did the inhibition turn out when `Cc1oc2ncnc(N3CCCCC3)c2c1C(=O)NCC1CCN(Cc2ccccc2F)CC1` was run?
A: The inhibition was 8.81%.

Q: With `Cc1ccc(CNC(=O)c2oc3ccc(S(=O)(=O)N4CCCC(C)C4)cc3c2C)cc1` (configuration not stated) as the compound, how does the inhibition read?
A: Its inhibition is -8.2%.

Q: `CCC(=O)NNc1ncnc2c1cnn2C` was tested. Which inhibition did it give?
A: Its inhibition is active: 47.6%.

Q: Which inhibition does the source give for `COc1ccccc1NC(=O)c1sc2nc(-c3cc4cc(Cl)ccc4oc3=O)[nH]c(=O)c2c1C` here?
A: Its inhibition is -10.2%.

Q: For `COc1ccc(NC(=O)C2=C(C)Nc3nc(SCc4ccc(C)cc4C)nn3C2c2cccc(OC)c2OC)cc1` (configuration not stated), which inhibition is on record?
A: Its inhibition is 4.25%.

Q: With `Cc1cc(-c2ccc(S(=O)(=O)Nc3ccccc3C)cc2)on1` as the compound, how does the inhibition read?
A: Its inhibition is 5.92%.

Q: How did the inhibition turn out when `O=C(Nc1ccc(F)cc1)C1CCN(c2nc3ccccc3nc2C(F)(F)F)CC1` was run?
A: Its inhibition is -12%.

Q: For `COc1ccc(-c2noc(CC(=O)N(C)c3ccccc3F)n2)cc1`, which inhibition is on record?
A: The inhibition was -14.6%.

Q: With `CCn1c(SC)nc2c([nH]c3ccccc32)c1=O` as the compound, how does the inhibition read?
A: Its inhibition is 4.48%.

Q: With `COc1ccc(CNC(=O)c2ccc3c(c2)N=C(C)c2c(C)ccc(C)c2S3)cc1` as the compound, how does the inhibition read?
A: Its inhibition is 11.2%.

Q: `Cc1cc(C)cc(NC(=O)CC(C)n2nc(C)cc2C)c1` (configuration not stated) was tested. Which inhibition did it give?
A: Its inhibition is 5.24%.

Q: `CCN(CC)c1ccc(NC(=O)CN2CCN(S(=O)(=O)c3ccc(C(C)C)cc3)CC2)cc1` was tested. Which inhibition did it give?
A: The inhibition was -11%.

Q: With `O=C(Cn1ccc2cc(S(=O)(=O)N3CCCC3)ccc21)NCc1ccc(Cl)cc1` as the compound, how does the inhibition read?
A: The inhibition was -13.3%.

Q: How did the inhibition turn out when `COc1cc(NC(=O)Cn2c(=O)n(Cc3ccccc3)c(=O)c3oc4ccccc4c32)cc(OC)c1` was run?
A: The inhibition was 4.23%.

Q: Which inhibition does the source give for `CCOC(=O)c1c(S(=O)(=O)N2CCC(C(=O)Nc3ccc(C)cn3)CC2)c(C)n(C)c1C` here?
A: Its inhibition is 2.33%.

Q: `COc1ccc(-n2cc(C(=O)NCCc3ccc(C)cc3)c3ccccc3c2=O)cc1` was tested. Which inhibition did it give?
A: Its inhibition is -9.4%.

Q: Which inhibition does the source give for `CCOC(=O)C1(CCc2ccccc2)CCN(Cc2c(O)cccc2OC)CC1` here?
A: The inhibition was active: 36.7%.

Q: For `CC1CCCCN1C(=O)CSc1nc2ccccc2nc1Cc1ccccc1` (configuration not stated), which inhibition is on record?
A: The inhibition was -11.4%.

Q: Which inhibition does the source give for `COC(=O)c1ccc(C2CC(=O)Nc3c2c(C)nn3-c2nc(C)cc(C)n2)cc1` (configuration not stated) here?
A: Its inhibition is 10.4%.

Q: For `CCOc1ccc(N2C(=O)c3[nH]nc(-c4ccccc4)c3C2c2ccc(O)c(OC)c2)cc1` (configuration not stated), which inhibition is on record?
A: The inhibition was -6.89%.

Q: How did the inhibition turn out when `Cc1nc(N2CCOCC2)c2c(C(=O)N3CCN(c4cc(Cl)ccc4C)CC3)c(C)oc2n1` was run?
A: Its inhibition is 13.3%.

Q: How did the inhibition turn out when `CCOc1c(CC2C(=O)Nc3ccc(Br)cc32)cccc1OC` (configuration not stated) was run?
A: The inhibition was 4.94%.

Q: For `COc1ccc(CNC(=O)C2CCCCN2S(=O)(=O)c2ccc(F)cc2)cc1` (configuration not stated), which inhibition is on record?
A: The inhibition was 13.4%.

Q: For `O=C(CN1C(=O)C2CCCCN2c2ccc(C(=O)N3CCCC3)cc21)NCc1ccc(F)cc1` (configuration not stated), which inhibition is on record?
A: Its inhibition is 20.1%.

Q: `CCOc1ccccc1CNc1ncnc2onc(-c3ccc(F)cc3)c12` was tested. Which inhibition did it give?
A: Its inhibition is -8.07%.

Q: `CCCNC(=O)CN1C(=O)COc2ccc(S(=O)(=O)N3CCCC3)cc21` was tested. Which inhibition did it give?
A: Its inhibition is -16.8%.

Q: `CCN1CCC(N(Cc2ccc(F)cc2)C(=O)Nc2cc(C)ccc2C)CC1` was tested. Which inhibition did it give?
A: Its inhibition is -2.05%.

Q: Which inhibition does the source give for `CC1CCN(CC(=O)N2CCCc3c2c(=O)oc2ccc(OCc4ccccc4)cc32)CC1` here?
A: The inhibition was 3.31%.

Q: With `CC1(C(=O)Nc2cccc(C(F)(F)F)c2)Cc2ccccc2C(=O)O1` (configuration not stated) as the compound, how does the inhibition read?
A: Its inhibition is -0.388%.

Q: With `COc1cccc(CN2CCN(C(=O)c3ccco3)CC2)c1` as the compound, how does the inhibition read?
A: Its inhibition is active: 81.9%.

Q: For `COc1ccc(C(c2c(C)n(C)n(-c3ccccc3)c2=O)c2c(C)n(C)n(-c3ccccc3)c2=O)cc1O`, which inhibition is on record?
A: Its inhibition is -7.45%.

Q: Which inhibition does the source give for `Cc1ccc(N2CC(NC(=O)Cc3cccs3)CC2=O)cc1` (configuration not stated) here?
A: The inhibition was -0.0495%.

Q: With `CCOc1cccc2sc(N(Cc3cccnc3)C(=O)c3ccco3)nc12` as the compound, how does the inhibition read?
A: The inhibition was -13.5%.

Q: Which inhibition does the source give for `COc1cc(OC)c(NC(=O)Nc2nnc(N(C)C3CCCCC3)s2)cc1Cl` here?
A: The inhibition was -16.8%.

Q: `CC1=C(C(=O)Nc2c(C)cc(C)cc2C)C2(CCN(C(C)C)CC2)OC1=O` was tested. Which inhibition did it give?
A: Its inhibition is -13.1%.

Q: `COc1ccc(CCNC(=O)c2cnc3sc(N4CCCCCC4)nn3c2=O)cc1OC` was tested. Which inhibition did it give?
A: Its inhibition is 0.38%.

Q: How did the inhibition turn out when `CCOCCCNC(=O)C(c1ccc(OC)cc1)N(Cc1cccs1)C(=O)c1ccccc1O` (configuration not stated) was run?
A: Its inhibition is 3.2%.

Q: With `CC(C)CCN1C(=O)N(c2ccccc2)C(=O)C1CC(=O)Nc1ccc(Cl)cc1` (configuration not stated) as the compound, how does the inhibition read?
A: The inhibition was -3.27%.

Q: With `Cc1ccc(Sc2ccc(N3CCCC(C(=O)Nc4ccc(Cl)cc4)C3)nn2)cc1` (configuration not stated) as the compound, how does the inhibition read?
A: The inhibition was 14.1%.

Q: Which inhibition does the source give for `CC(C)NC(=O)CSc1nc2ccccc2nc1N1CCCCC1` here?
A: Its inhibition is 20.9%.

Q: Which inhibition does the source give for `O=C(NC1CCCC1)c1ccc2nc(-c3ccco3)c(-c3ccco3)nc2c1` here?
A: Its inhibition is active: 33.3%.

Q: For `CCOc1ccc(C(=O)NCCc2sc(-c3ccc(C)cc3)nc2C)cc1`, which inhibition is on record?
A: Its inhibition is -13%.

Q: Which inhibition does the source give for `Cc1ccccc1OCCC(=O)N1CCN(S(=O)(=O)c2ccc(Br)cc2)CC1` here?
A: Its inhibition is active: 54.7%.

Q: `Cc1ccc(CCNC(=O)c2ccc(CS(=O)(=O)c3ccc(Br)cc3)o2)cc1` was tested. Which inhibition did it give?
A: The inhibition was 27.7%.
